Sequences and labels used below:
B1: LINE1-full (parent)
chain: UACGUAGGUGGUUUUCCCCUGAUAGUGCUAAGGGGGCCUGGAAGUUUGGACUGGGCAGAGCUCAACACAGCGUGGCAAAGUGGCUGUGGCUAGACUGCCUCUCUGGAUUCCUCGUCACUCAGCAGGGCAUCUCUGAGAGAAAUGCC

Read counts are not given, so values of variants with three or more changes are uncertain.

The variants in the data set derive from B1. Description: self-cleavage, relative activity (ratio to wild type); higher = more cleavage; in vitro, sequencing; the parent is a self-cleaving ribozyme.
As for UACGUAGGUGGUUUUCCCCUGAUAGUGCUAAGGGGGCCUGGGAGUUUGGACUGGGCAGAGCUCAACACAGCGUGGCAAAGUGGCUGUGGCUAGACUGCCUCUCUGGAUUCCUCGUCACUCGGCAGGGCUUCUCUGAGAGAAAUGCC [A42G A121G A129U], the self-cleavage stood at 1.19.

On to UACGUAGGUGGUUCUCCCCUGAUAGUGCUAAGGGGGCCUGGAAGUUUGGACUGGGCAGAGCUCAACACAGCGUGGCAAAGUGGCUGUGGCUAGACUGCCUCUCUGGAUUCCUCGUCACUCAGCAGGGCAUCUCUGAGUGAGAUGCC [U14C A138U A141G], for which the self-cleavage stood at 1.15. The same measure for UACGUAGGUGGUAUUCCCCUGAUAGUGCUAAGGGGGCCUGGAAGUUAGGACUGGGCAGAGCUCAACACAGCGUGGCAAAGUGGCUGUGGCUAGACUGCCUCUCUGGAUUCCUCGUCACUCAGCAGGGCAUCUCCGAGAGAAAUGCC [U13A U47A U134C]: 0.5.

In the case of UACGUUGGUGGUUUUCCCCUGAUAGUGCUAAGGGGGCCAGGAAGUUUGGACUGGGCAGAGCUCAACACAGCGUGGCCAAGUGGCUGUGUCUAGACUGCCUCUCUGGAUUCCUCGUCACUCAGCAGGGCAUCUCUGAGAGAAAUGCC [A6U U39A A77C G89U], the self-cleavage was 0.07. The figure for UACGUAGGUGGUUUUCCCCCGAUCGUGCUAAGGGGGCCUGGAAGUUUGGACUGGGCAGAGCUCAACACAGCGUGGCAAAGUGGCUGUGGCUAGACUGCCUCUCUGGGUUCCUCGUCACUCAGCAGGGCAUCUCUGAGAGAAAUGCC [U20C A24C A107G] is 0.88; for UACGUAGGUGGUUUUCCCCUGAUAGUGCUAAGGGGGCCUGGAAGUUUGGACUGGGCAGAGCUCAACGCAGCGUGGCAAAGAGGCUGUGGCUAGACUGCCCCUCUGGAUUCCUCGUCACUCAGCAGAGCAUCUCUGAGAGAGAUGCC [A67G U81A U100C G126A A141G] it is 1.64.

Consider UGCGUAGGCGGUUUUCCCCUGAUAGUGCUAAGGAGGCCUGGAAGUUUGGACUGGGCAGAGCUCAACACAGCGUGGCAAAGUGGCUGUGGCUAGACAGCCUCCCUGGAUUCUUCGUCACUCAGCAGGGCUUCUCUGAGAGAAAUGCC [A2G U9C G34A U96A U102C C111U A129U], for which the self-cleavage was 0.43. The figure for UACGUAGGUGGUUUUCUCCUGAUGGUGCUAAGGGGGCCCGGAAGUUUGGACUGGGCAGAGCUCAACACAGCGUGGCAAGGUGGCUGUGGCUAGACUGCCUCUCUGGAUUCCUCGUCACUCAGCAGGGCAUCUCUGAGGGAAAUGCC [C17U A24G U39C A79G A138G] is 0; for UACGUAGGUGGUUUUCCCCUGAUAGUGCUAAGGGGGCCUGGAAGUUAGGACUGGGCAGAGCUCAACACAGCGUGGCAAGGUGGCUGUGGCUAGACUGCCCCUCUGGAUUCCUCGUCACUCAGCAGGGCAUCUCUGAGAGAAAUGCC [U47A A79G U100C] it is 0.92. The same measure for UACGUAGGUGGUUUUCCCCUGAUAGUGCUAAGGGGGCCUGGAAGUUUGGACUGGGCAGAGCUCAACACAGCGUGGCAAAGUGGCUGUGGCCAGACUGCCCCUCUGGAUUCCUCGUCUCUCAGCAGGGCAUCUCUGAGAGAAAUGCC [U91C U100C A117U]: 1.39; for UACGUAGGUGGUUUUCCCCUGAUAGUGCUAAGGGGGCCUGGAAUUUUGGACUGGGCAGAGCUCAACACGGCGUGGCAAAGUGGCUGUGGCUAGACUGUCUCUCUGGAUUCCUCGUCACUCAGCAGGGCAUCUCUGAGAGAAAUGCC [G44U A69G C98U]: 0.08; for UACGUAGGUGGUUUUCCCCUGAAAGUGCUAAGGGGGCCUUGAAGUUUGGACUGGGCAGAGCUCAACACAGCGUGGCAAAGUGACUGUGGCUAGACUGCCUCUCUGGAUUCCUCGUCACUCAGCAGGGCAUCUCUGAGAGAAAUGCC [U23A G40U G83A]: 0.21.

Consider UACGUAGGUGGUUUUCCCCUGAUAGUGCUAAGGGGGCCUGGAAGUUUGGACUGGGGGGAGCUCAACACAGCGUGGCAAAGUGGCUGUUGCUAGACUGCCUCUCUGGAUUCCUCGUCACUCAGCAGGGCGUCUCUGAGGGAAAUGCC [C56G A57G G88U A129G A138G], for which the self-cleavage was 0. The figure for UACGUAGGUGGUUUUCCCCUGAUAGUGCUAAGGGGGCCUGGAAGUUUGGGCUGGGCAGAGCUCAACACAGCGUGGCCAAGUGGCUGUGGCUAGACUGCCUCUCUGGAUUCCUCGUCACUCAGCAGGGCAUCUCUGAGUGAAAUGCC [A50G A77C A138U] is 0.6. The figure for UGCGUAGGUGGUUUUCCCCUGAUAGUGCUAAGGGGGCCGGGAAGUUUGGACUGGGCAGAGCUCAACACAGCGUGGCAUAGUGGCUGUGGCUAGACUGCCUCUCUGGAUUCCUCGUCACUCAGCAGGGCAUCUCUGAGAGAAAUGCC [A2G U39G A78U] is 0.54; for UACGUAGGUGGUUUUCCCCUGAUAGUGCUAAGGGGGCCUGGAAGUUUGGACUGGGCAGAGCCCUACACAGCGUGGCAAAGUGGCUGUGGCUAGACUGCCUCUCUGGAUCCCUUGUCACUCAGCAGGGCAUCUCUGAGAGAAAUGCC [U62C A64U U109C C113U] it is 0.05; for UACGUAGGUGGCUUUCCCCUGGUAGUGCUAAGGGGGCUUGGAAGUUUGGACUGGGCAGAGCUCAACACAGCGUGGCAAGGUGGCUGUGGCUAGACUGCCUCUCUGGAUUCCUCGUCACUCAGCAGGGCAUCUCUGGGAGAAAUGCC [U12C A22G C38U A79G A136G] it is 0.64. With UACGUAGGUGGUUCUCCCCUGAUAGUGCUAAGGGGGCCUGGACGUUUGGACUGGGCAGAGCUCAACACAGCGUGGCAAAGUGGCUGUGGCUAGACUGCCUCUCUGGAUUCCUCGUCACUCUGCAGGGCAUCCCUGAGAGAAAAGCC [U14C A43C A121U U132C U143A], the self-cleavage was found to be 2.23.

Consider UACGUAGGUGGUUUUCCCCUGAUAGUGCUAAGGGGGCCUGGAAGUUUGGACUGGGCAGAGCUCAACGCAGCGUGGCAAAGUGGCUGUGGCUAGACUGCCUCUCUGGAUUCCUCGUCACUCAGCGGGGCAUCUCUGAGAGAAGUGCC [A67G A124G A142G], for which the self-cleavage was found to be 0. The figure for UACGUAGGUGAUUCUCCCCUGAUAGUGCUAAGGGGGCCUGGAGGUUUGGACUGGGCAGAGCUCAACACAGCGUGGCAAAGUGGCUGUGGCUAGACUGCCUCUCUGGAUUCCUCGUCACUCAGCAGGGCAUCUCAGAGAGAAAUGCC [G11A U14C A43G U134A] is 0.55; for UACGUAGGUGGUUUUCCCCUGAUAGUGCUAAGGCGGCCUGGAAGUUUGGACUGGGCAGAGCUCAACACAGCGUAGCAAAGUGGCUGUGGCUAGACUGCCUCUCUGGAUUCCUCGUCACUCUGCAGGGCAUCUCUGAGAGAAAUGCC [G34C G74A A121U] it is 1.46. On to UACGUAGGUGGUUUCCCCCUGAUAGUGCUAAGGGGGCCUGGAAGUUUGGACUGGGCAGAGCUCAACGCAGCGUGGCAAAGUGGCUGUGGCUAGACUGCCUCUCCGGAUACCUCGUCACUCAGCAGGGCAUCUCUGAGAGAGAUGCC [U15C A67G U104C U109A A141G], for which the self-cleavage stood at 0. The figure for UACGUAGGUGGCUUUCUCCUGAUAGUGCUAAGGGGGCCUGGAAGUUUGGACUGGGCAGAGCUCAACACAGCGUGGCAAAGCGGCUGUGGCUAGACUGCCUCUCUGGAUUCCUCGUCACUCAGCAGGGCAUCUCUGAGAGAAAUGCC [U12C C17U U81C] is 0.6; for UACGUAGGUGGUUUUCCCCUGAUAGUGCUAAGGGGGCCUGGAAGUUUGGACUGGGCAGAGCUCAACACAGCGUGGCAAAGUGGCCGUGGCUAGACUGCCUCUCUGGGUUCCUCGUCACUCAGGAGGGCAUCUCUGAGAGAAAUGCC [U85C A107G C123G] it is 0.12.

Regarding UACGUAGGUGGUUUUCCCCUGAUAGUGCUAAGGGGGCCUGGAAGUUUGGACUAGGCAGAUCCCAACACAGCGUGGCAAAGUGGCUGGGGCUAGACUGCCUCUCUGGAUUCCUCGUCACUCAGCAGGGCAUCUCUGAGAGAAAUGCC [G53A G60U U62C U87G], the self-cleavage turned out to be 0.01. The figure for UACGUAGGUAGUUUUCCCCUGGUAGUGCUAAGGGGGCCUGGAAGUUUGGACUGGGCAGAGCUCAACACAGUGCGGCAAAGUGGCUGUGGCUAGACUGCCUCUCUGGAUUCCUCGUCACUCAGCAGGGCAUCUCUGAGAGAAAUGCC [G10A A22G C71U U73C] is 0.85; for UACGUAGGUGGUAUUCCUCUGAUAGUGCUAAGGGGGCCUGGAAGUUUGGACUGGGCAGAGCUCAGCACAGCGUGGCAAAGUGGCUGUGGCUAGACUGCCUCUCUGGAUUCCUCGUCACUCAGCAGGGCAUCUCUGAGAGAAAUGCC [U13A C18U A65G] it is 0.13. As for UACGUAGGUGGCUUUCCCCUGAUAGUGCUAAGGGGGCCUGGAAGUUUGGACUGGGCAGAGCUCAACACAGCGUGGCAAAGUGGCUGUGGCUAGACUGCCUCCCUGGAUUCCUCGACACUCAGCAGGGCAUCUCUGAGAGAAAUGCC [U12C U102C U115A], the self-cleavage stood at 0.18. The figure for UACGUAGGUGGUUUUCCCCUGAUAGUGCUAAGGGGGCCUGGAAGUUUGGACUGGGCAGUGCUCAACUCAGCGUGGCAAAGUGGCUGUGGCUAGGCUGCCUCUCUGGAUUCCUCGUCACCCAGCAGGGCACCUCUGAGAGAAAUGCC [A59U A67U A94G U119C U130C] is 0. In the case of UACGUAGGUGGUUUUCCCCUGGUAGUGCUAAGGGGGCCUGGAAGUUUGGACUGGGCAGAGCUCAACACAGCGUGGCAAAGUGGCUGAGGCUAGACUGCUUCUCUGGAUUCCUCGUCACUCAGCAGGGCAUUUCUGAGAGAAAUGCC [A22G U87A C99U C131U], the self-cleavage was determined as 0.1. As for UACGUAGGUGGUUUUCCCCUGACAGUGCUAAGGGGGCCUGGAAGUUUGGACUGGGCAGAGCUCAACACAGCGUGGCAAAGUGGCUGUGGCUAGACUGCCUCUCUGGAUUCCUCGUCACACAGCAGGGCAUCUCUGAGGGAAAUGCC [U23C U119A A138G], the self-cleavage was 1.62. In the case of UACGUAGGUGGUUUUCCCCUGAUAGUGCUAAGGGGGCCUGGGUGCUUGGACUGGGCAGAGCUCAACACAGCGUGGCAAAGUGGCUGUGGCUAGACUGCCUCUCUGGAUUCCUCGUCACUCAGCAGGGCAUCUCUGAGAGAAAUGCC [A42G A43U U45C], the self-cleavage was 1.36. UACGUAGGUGGUUUUCCCCUGAUAGUGCUAAGGGGGCCUGGGAGUUUGGACUGGGGUGAGCCCAACACAGCGUGGCAAAGUGGCUGUGGCUAGACUGCCUCUCUGGAUUCCACGUCACUCAGCAGGGCAUCUCUGAGAGAAAUGCC [A42G C56G A57U U62C U112A]: the self-cleavage was found to be 0.04. The same measure for UACGCAGGUGGUUUUCCCCUGAUAGUGCUAAGGGGGCCUGGAAGUUUGGACUGGGCAGAGCUCAACACAGCGUGGCAGAGUGGCUGUGGCUAGACUGCCUCUCUGGAUUCCUCGUCACUCAGCAGGGCAUCUCUGAGAGAAACGCC [U5C A78G U143C]: 0.79; for UACGUAGGUGGUUUUCCCCUGAUAGUGCUGAGGGGGCCUGGAAGUUUGGACUGGGCAGAGCUCAACACAGCGUGGCAAAGUGGCUGUGGCUAGACUGCCUCUCUGGAUUCCUCGUCACUCAGCAGGGCAUCUCUGAGAGGAACGCC [A30G A140G U143C]: 0.89. For the variant UACGUAGGUGGUCUUCCCCUGGUAGUGCUAAGGGGGCCUGGAAGUUUGGACUGGGCAGAGCUCAACACAGCGUGGCAAAGUGGCUGUGGCUAGACUGCCUCUCUGGAUUCCUCGUCACCCAGCAGGGCAUCUCUGAGAGAAAUGCC [U13C A22G U119C], the self-cleavage worked out at 1.23.

For UACGUAGGUGGUUUUCCCCUGAUAGUGCUAAGGGGGCCUGGAAGUUUGGACUGGGCAGAGCUCAACACAGCGUGGCAAAGCGGCUGUGCCUAGACUGCCUCUCUGGAUUCCUCGUCACUCAGCAGGGCAUCUCUGGGAGAAAUGCC [U81C G89C A136G], the self-cleavage was 0.14. The figure for UACGUAGGUGGUUUUCCCCUGAUAGUGCUAAGGGGGCCUGGAAGUUUGGACUGGGCAGAGCUCAACACAGCGUGGCAAAGGGGCUGUGGCUAGACAGCCUCUCUGGAUUCCCCGCCACUCAGCAGGGCAUCUCUGAGAGAAAUGCC [U81G U96A U112C U115C] is 0.11; for UACGUAGGCGGUUUUCCCCUGAUAGUGCUAAGGGGGCCUGGAAGGUUGGUCUGGGCAAAGCUCAACACAGCGUGGCAAAGUGGCUGUGGCUAGACUGCCUCUCUGGAUUCCUCGUCACUCAGCAGGGCAUCUCUGAGAGAAAUGCC [U9C U45G A50U G58A] it is 0.08.

The values are drawn from the RNAGym collection of RNA variant scans (doi:10.7554/elife.90254).
